# Experimental data taken from ChEMBL document CHEMBL4888484, “Replenishing the malaria drug discovery pipeline: Screening and hit evaluation of the MMV Hit Generation Library 1 (HGL1) against asexual blood stage Plasmodium falciparum ,using a nano luciferase reporter read-out” (2022).
# Values joined by “and” are separate entries in the source; they are usually repeats but may differ in a detail not shown here. Identical values can stand only once. Out of some 150,000 compounds screened, about 540 (0.36%) showed an effect of 50% or more. This is one part of the list.
# Test system: Plasmodium falciparum
# Assay: Primary screen in NF54 nanoGlo assay, in single point, at 2uM, 72h; a lower Z score goes with more inhibition
# Assay type: functional, Erythrocyte
# Conditions: timepoint 72 hour
Structure (SMILES),% Inhibition,Z score,% Inhibition (2 µM),Z score (2 µM)
O=C(CCOCC(F)(F)C(F)F)NCc1cccc(O)c1,7%,-0.82,,
Cc1c(C)n(CC(O)CNC(C)c2ccccc2)c2c(Cl)cccc12 (configuration not stated),59%,-7.71,,
c1ccc(-c2cc(-c3ccccc3)c(Nc3nc(-c4cccs4)cs3)c(-c3ccccc3)c2)cc1,-2%,0.35,,
Cc1nn(C)c(=O)c(C(=O)N2CC[C@H](C(=O)N3CCCC3)C2)c1C,-10%,1.23,,
CCc1nnc(CN2CCCc3c(F)c(F)cc(F)c32)o1,40%,-3.82,,
Cc1[nH]c2ccccc2c1C(=O)[C@H](C)N(C)CC(=O)Nc1cccc(F)c1,-2%,0.25,,
CC(C)(CN1CCOCC1)CN1C[C@H](O)[C@@H](F)C1,-8%,1.47,,
CO[C@@H]1C[C@@H](c2nc(C3CC3)n[nH]2)N(Cc2cccc3c2OCCO3)C1,4%,-0.6,,
Cc1cccc(NCc2ccc(N3N=C(c4ccccc4)C[C@H]3c3ccccc3)cc2)c1,-1%,0.11,,
Cc1cc(Cl)ccc1OCC(=O)NCC(C)(C)CNC(=O)COc1ccc(Cl)cc1C,-1%,0.08,,
C[C@@H](CC(=O)Nc1cncnc1-n1cccn1)c1ccccc1,38%,-4.91,,
O=C(CN1CCC[C@H](C(=O)Nc2nncs2)C1)Nc1ccnn1C1CCCC1,6%,-0.87,,
CCc1nnsc1C(=O)N1C[C@@H]2CC[C@H]1CN(C(=O)c1cnccn1)C2,-9%,1.7,,
O=C(NCCNc1cnccn1)c1cc(Cl)c[nH]1,-9%,1.27,,
COc1ccc(CC(=O)N2CCC[C@H](n3ccnn3)C2)c(C)c1,-8%,1.14,,
COCc1ccc(C(=O)Nc2cc(Cl)ccc2NC2CC2)o1,-8%,1.26,,
Cn1ccc(CN2CCn3ccnc3C2)cc1=O,-6%,1.15,,
Cc1ccc(C(=O)NC2CCS(=O)(=O)CC2)cc1Cl,17%,-2.23,,
COc1ccc(C)cc1S(=O)(=O)N1CCCCC[C@H]1c1ccn(C)n1,0%,-0.03,,
CC(=O)N1CCC(C(=O)N[C@H]2CCN3C(=O)N(c4ccc(C)cc4)C(=O)[C@@H]3C2)CC1,7%,-0.82,,
COc1ccc(CNC(=O)N2CCn3nnc(CCC(=O)NC4CC4)c3C2)cc1,-8%,1.56,,
Cc1cc(C)cc(NC(=O)C2CCN(C(=O)NC3CCN(S(C)(=O)=O)CC3)CC2)c1,-10%,1.43,,
CCOCCN1C[C@]23C=C[C@H](O2)C(C(=O)N2CCc4n[nH]cc4C2)C3C1=O (some centres not stated),-13%,2.39,,
Cn1cc(-c2n[nH]cc2C(=O)N2CCC[C@H](N3CCOCC3)CC2)cn1,-4%,0.72,,
NC1(C(=O)N2CCOC(C3CCCO3)C2)CCCCC1 (configuration not stated),-13%,1.58,,
CCCNC(=O)Cn1ncc2c(N3CCCCCC3)ncnc21,-16%,1.83,,

Structure (SMILES),% Inhibition,Z score,% Inhibition (2 µM),Z score (2 µM)
CCc1noc([C@H]2CCC(=O)N(Cc3ccccc3F)C2)n1,-10%,1.92,,
CCCC(C)(C)N(Cc1cccs1)C(=O)C1CCOCC1,2%,-0.28,,
CC(C)N1C[C@@H](C(=O)N2CCCc3cc(S(C)(=O)=O)ccc32)CC1=O,-10%,1.84,,
Cn1cc(CN2CCC(CC3CC3)(c3noc(C4CCOCC4)n3)CC2)c2ccccc21,-9%,1.23,,
COc1ccc(-c2nc3c(s2)CN(S(=O)(=O)c2ccc(C(C)=O)cc2)CC3)cc1,-12%,1.99,,
CCOC(=O)[C@H](C)c1nc(-c2cccc(S(C)(=O)=O)c2)cs1,10%,-1.97,,
CCC(=O)N(CC(=O)Nc1nc(-c2ccccc2)cn1-c1ccc(C(C)C)cc1)C[C@H]1CCCO1,-13%,2.08,,
Cc1ccc(CNC(=O)CC2=Nc3ccccc3S(=O)(=O)N2)cc1,-2%,0.38,,
Cn1ccc(NC(=O)CN2CCO[C@H]3CCCC[C@@H]32)n1,1%,-0.26,,
COc1ccc(C(=O)N2CCN(c3cc(N4CCOCC4)nc(C)n3)CC2)cc1,40%,-5.32,,
CCOC(=O)N1CCC(NC(=O)c2ccccn2)CC1,-16%,2.15,,
COCCN1CC(=O)N[C@H]2CN(Cc3cc(C(C)(C)C)[nH]n3)C[C@@H]2OCc2cccc(c2)Oc2cc(ccc2OC)CCC1=O,12%,-2.25,,
C=CCCC(O)CN1CCCC(c2c[nH]c3ncccc23)C1 (configuration not stated),-5%,0.67,,
CC1CCN(c2nnc(C(=O)NCc3cccc(F)c3)c3ccccc23)CC1,0%,0.01,,
C=CCNc1nc([C@@H]2COc3ccccc3O2)cs1,,,-8% and -5%,0.72 and 0.67
O=C(NC[C@@H](CO)Cc1ccccn1)Nc1nc2c(s1)CCCC2,7%,-0.87,,
COc1cccc(NC(=O)C2CCN(S(=O)(=O)c3ccc4c(c3)CCCN4C(=O)C3CCC3)CC2)c1,-11%,2,,
Cc1cccc(CC(=O)N2CCC3(CC2)C[C@@H](N(C2CC2)S(C)(=O)=O)CCO3)c1,0%,0.04,,
COc1ccccc1C(=O)N1CCC2(CC1)C[C@@H](N(C)Cc1ccccc1)CCO2,-4%,0.72,,
O=S(=O)(c1ccc2ccccc2c1)n1cncn1,-47%,5.52,,
CC1CCN(C(=O)c2nnn3c2CO[C@H](c2ccccc2)C3)CC1,-6%,0.89,,
Cc1ccnc(NC(=O)N[C@@H](Cc2ccccc2)C2CC2)c1,7%,-0.83,,
Cc1nc(CN)cc(N(C)[C@H](C)c2cccc3ccccc23)n1,4%,-0.62,,
Cc1nc2ccc(Cl)cc2c(-c2ccccc2)c1C1=NN(S(C)(=O)=O)[C@H](c2ccc(Cl)cc2)C1,5%,-0.6,,
CC(C)n1nnnc1CN[C@@H](C)c1ccc(F)c(F)c1,-15%,1.89,,
